Experimental data as given in the RNAGym collection of RNA variant scans (doi:10.7554/elife.90254).
Read counts are not given, so values of variants with three or more changes are uncertain.

B1: LINE1-mini (parent)
chain: GGCAGAGCUCAACACAGCGUGGCAAAGUGGCUGUGGCUAGACUGCC

Variants of: B1
Test: self-cleavage, relative activity (ratio to wild type); higher = more cleavage; in vitro, sequencing; the parent is a self-cleaving ribozyme

| Variant | self-cleavage |
| --- | --- |
| G1A A4U C23A | 0.49 |
| G1A A14U U20A A25G G30C U32C | 0.07 |
| G1A G2A C23U G30C U34C G36A C37G | 0.21 |
| G1A A4U C15U U28A | 0.13 |
| G1A A16U G36C | 0.11 |
| G1A A12U G17C | 0.17 |
| G1A A12U G17A | 0.13 |
| G1A A4C G40A | 0.07 |
| G1A C8G C46G | 0.07 |
| G1A C8U G36A | 0.91 |
| G1A C18G G27C G36C | 0.13 |
| G1A A24U G27U | 0.34 |
| G1A A4C G5U | 0.1 |
| G1A C10A C15A | 0.09 |
| G1A A25G G36U | 0.03 |
| G1A A26U U32G | 0.11 |
| G1A C3U C18A | 0.1 |
| G1A A14G C31G G36U A39C | 0.09 |
| G1A A26U C31U | 0.13 |
| G1A A6C G21U U32C | 0.11 |
| G1A C8U C15A A26C | 0.92 |
| G1A A6U C18G C37U | 0.07 |
| G1A A26G C31A | 0.08 |
| G1A C10U C31U C37U | 0.04 |

| Variant | self-cleavage |
| --- | --- |
| G1A C3U G5U G33A | 0.3 |
| G1A A12U A25G G27C A39U G40C | 0.04 |
| G1A G2A C10G G17A | 0.14 |
| G1A C3G G27A G30C | 1.52 |
| G1A A14C A39U | 0.03 |
| G1A G2A U38A | 1.01 |
| G1A C13A U20C U32C G36A | 0.05 |
| G1A C10U G21U | 0.42 |
| G1A A16C G17A | 0.14 |
| G1A C8G G19U U20G G36C | 0.45 |
| G1A A4U C15U U34G G36A C46A | 0.07 |
| G1A C15G G21C G27U C37A G44U | 0.01 |
| G1A C10G A12G | 0.01 |
| G1A C8G U28C G40U | 0.08 |
| G1A C13U A25G G29A U43G | 0.04 |
| G1A C10A G22U G30C A39C | 0.04 |
| G1A C8A G29U U32G U38G | 1.58 |
| G1A A14U G17A C46U | 0.06 |
| G1A C8G C18U U32C C37U | 0.01 |
| G1A C13G C23G | 0.77 |
| G1A A16U G40U | 0.03 |
| G1A G2A U34A | 0.26 |
| G1A C8U U32C | 0.02 |
| G1A A4G C13A U34C G35C | 0.04 |

| Variant | self-cleavage |
| --- | --- |
| G1A A11G A16C G19A C37G | 0.06 |
| G1A G2C G7C C8U C13A G17A U20G G29C | 0.01 |
| G1A A14U C31A U34A G36U | 0.07 |
| G1A A14G G19C | 0.09 |
| G1A G2C G19A C23U U43C | 0.17 |
| G1A C18A G27A | 0.3 |
| G1A A6U C15U C23A U28G G35A U43A | 0.16 |
| G1A C15G U34C | 0.08 |
| G1A C8G A26U G30A | 0.53 |
| G1A A16C U32A G33A | 0.05 |
| G1A G2A C10A C23A U34C | 0.22 |
| G1A A24U C45A | 0.14 |
| G1A A14C C31G | 0.01 |
| G1A A24C A41C | 0.03 |
| G1A C18A G44U | 0.15 |
| G1A A6G A12U A14C | 0.02 |
| G1A A11U A16U | 0.1 |
| G1A C3G G21A G22C C23U U43G G44U | 0.04 |
| G1A A16G G33C C45A | 0.01 |
| G1A A4G G5U U20C A24C G27U C31G | 0.02 |
| G1A C42A C46U | 0.09 |
| G1A C13U C18G U32C A41C | 0.07 |
| G1A C15G G27A C42U | 0.05 |
| G1A A4G G5A G7C G21U | 1.49 |

| Variant | self-cleavage |
| --- | --- |
| G1A G2A G33U C37G | 0.18 |
| G1A A6G G27U U34C | 0.04 |
| G1A A14C C18U G35U | 0.03 |
| G1A C8A G22A | 0.44 |
| G1A C3A G22U A25C G33U | 1.14 |
| G1A A16C U43A C45G | 0.03 |
| G1A C8A G30C | 0.16 |
| G1A A12G A16U G22U | 0.05 |
| G1A C3A G5C G7A U9A C45U C46G | 0.99 |
| G1A A4U C13G C31U G35A A41U | 0.17 |
| G1A C3U U20A C37U C46A | 0.21 |
| G1A G2C G33U A39U | 0.07 |
| G1A A12G U32C G36U | 0.03 |
| G1A A25U G44C | 0.29 |
| G1A C10A C18U | 0.05 |
| G1A C23G U34C G35C C37A | 0.02 |
| G1A A16C A41G | 0.04 |
| G1A C3A G30U G35C G40C | 0.36 |
| G1A A11G U32C | 0.04 |
| G1A A16C C23U G29C | 2.24 |
| G1A C3G C18G G29C G40U | 0.15 |
| G1A A4G C15U | 0.12 |
| G1A C13U U20C U38G C46A | 0.02 |
| G1A C18G G19C G30A A41C | 0.13 |

| Variant | self-cleavage |
| --- | --- |
| G1A A16G C31A | 0.04 |
| G1A A14U C31G A39G | 0.24 |
| G1A G2C A16C G22A G29U A41U | 0.06 |
| G1A A6U A14G C42A | 0.1 |
| G1A C15A C23A G36U A39C A41C | 0.02 |
| G1A A4G A26C | 0.08 |
| G1A A24U A26G U28C | 0.21 |
| G1A C3G U20G A24C A39C G44U | 0.12 |
| G1A A12U C31U C46A | 0.41 |
| G1A C13A G19A G33A | 0.04 |
| G1A C23U G27A U38G | 0.01 |
| G1A A12C C37A | 0.01 |
| G1A C3A C42U | 0.9 |
| G1A C3G G40C U43C | 0.18 |
| G1A C8A A14C G19C | 0.19 |
| G1A G2U A14U G29U C42A | 0.01 |
| G1A C3A C10A G19A U28G G35A | 0.33 |
| G1A C10U G40A C45G | 0.03 |
| G1A A14U G30C G35U G44A | 0.14 |
| G1A G2C A12U U34G | 0.05 |
| G1A C37U C46A | 0.06 |
| G1A C10G C23U | 1.12 |
| G1A C3G C18A G19A | 0.49 |
| G1A C10U G21C A25C | 1.39 |

| Variant | self-cleavage |
| --- | --- |
| G1A C15U A24C G44U C45G | 0.07 |
| G1A G2A C18A G33U C37A | 0.28 |
| G1A C31G U32G | 0.16 |
| G1A A14U U20G U34C | 0.1 |
| G1A C42A G44U | 0.1 |
| G1A A6U C13A G35C U38A G40U | 0.02 |
| G1A C8U A39G | 0.06 |
| G1A A4C G19U | 0.06 |
| G1A A11C G19U C23A G35A | 0.01 |
| G1A A25C A26C C31G | 0.03 |
| G1A G2U A14C G17U C37G | 0.07 |
| G1A C18U G19C | 0.11 |
| G1A C13A G27U U34G | 0.04 |
| G1A A12C G19U U38C C42G | 0.03 |
| G1A C3G C15A G29C A39U G40A | 0.29 |
| G1A C8U U20G A25U G27A | 0.31 |
| G1A A4G A6C C10U G22A U28C U32G | 0.04 |
| G1A A12C C18G G29U | 0.01 |
| G1A C8A C18A A26U | 1.14 |
| G1A C31U A39C | 0.01 |
| G1A A25C C37A C46A | 0.13 |
| G1A A16G C42A | 0.04 |
| G1A C3U G7A C10G G33U C42U C46A | 0.06 |
| G1A C3U C13G A14U | 0.27 |

| Variant | self-cleavage |
| --- | --- |
| G1A A6C A41G C42G | 0.05 |
| G1A C8G G33A C37U | 0.22 |
| G1A A12G G21U | 0.02 |
| G1A A11G U28C C31U G35U | 0.05 |
| G1A C13U A25U A26G G44U | 0.09 |
| G1A C10A G19A | 0.07 |
| G1A A12G G22U C23G | 0.02 |
| G1A C15U C23A A25U | 0.81 |
| G1A G2A U38C A41U | 0.72 |
| G1A C13A G17U U43G C46A | 0.05 |
| G1A C8G U20C C23U G40U | 0.05 |
| G1A A25U U28C C37U C45U | 0.05 |
| G1A C3G A6U A14U U32C A39G C45U | 0.11 |
| G1A A12U C13A C18A A26U A41C | 0.06 |
| G1A A4U G5U A11G A16C G17U G21U C31A | 0.03 |
| G1A C10A C13U G19A G21A G29U | 0.1 |
| G1A C13U C45U | 0.11 |
| G1A C13G U20A G27U | 0.08 |
| G1A C3A A24U | 0.47 |
| G1A C42G G44C | 0 |
| G1A A4U A6C C42A | 0.02 |
| G1A A6C G19C A39C | 0.11 |
| G1A C8U G19U G40C | 0.11 |
